Results as given in paper PMC10726135.
Some of the results follow. At the low end of the ranking the order means little. The protein was read in a cell extract, so binding may be indirect.

target: T1, HNF4alpha2 (COS-7 nuclear extract) (UniProt P41235); test: protein-binding microarray; settings: COS-7 nuclear extract on double-stranded Agilent 4x180k PBM; binding buffer, salt, pH and temperature not given; high values mean tight binding; double strand, one strand shown; sequences stand for … in …GCCTAGGGAGATTAGAGTATCGGTCGA
T1 sequence: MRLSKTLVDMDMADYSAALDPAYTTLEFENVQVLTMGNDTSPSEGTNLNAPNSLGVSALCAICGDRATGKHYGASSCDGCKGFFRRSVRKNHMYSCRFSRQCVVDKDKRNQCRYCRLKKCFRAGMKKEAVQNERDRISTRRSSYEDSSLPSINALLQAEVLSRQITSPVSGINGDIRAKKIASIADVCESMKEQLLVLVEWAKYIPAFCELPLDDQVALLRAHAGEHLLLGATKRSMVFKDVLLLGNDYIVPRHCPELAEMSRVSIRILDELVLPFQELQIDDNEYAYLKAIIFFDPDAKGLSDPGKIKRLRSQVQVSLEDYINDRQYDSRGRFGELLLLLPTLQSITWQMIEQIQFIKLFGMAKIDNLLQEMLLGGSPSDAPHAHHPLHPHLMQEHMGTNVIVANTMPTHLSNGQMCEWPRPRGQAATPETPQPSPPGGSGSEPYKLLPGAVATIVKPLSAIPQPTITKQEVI

| Sequence | binding signal (log2 normalized intensity) |
| --- | --- |
| CTTTAATAGGCTGGGATGATTTCAGCTTAT | -0.952 |
| TCGCCTAGGCCTTTCCTGGGCCTTAAAGCA | -1.18 |
| TCTCTGGTCAAAGGGTAAAGATTATGAACT | 2.44 |
| ACAACAGCCTTGCAGATAAGCCACGAGCCT | -1.06 |
| TATTCATTCAACTTTGACTTCCATTGTGTT | 1.84 |
| TCATCTGAGTAGTGTACGTTGTACCCCACA | 3.56 |
| ACATTGTAACCACCTCTCTGGGTGGTTCGA | 0.003 |
| GAAAACAAATAGAGCAGACTATTATCAGCC | -1.24 |
| CCTAAGTCTGCCGTTTTCTTATTCTGTCAC | 1.89 |
| CTCCATGCTGTAGATTGTGGAATGTCTTCT | 1.58 |
| TTGGGACCTGAGAACAAACAATGGTTTGGG | 0.202 |
| AAACTCTCAAGCTCTCCTCTTATCAGGCAG | -1.07 |
| AGTGTAAAGAGCTTTTGGGCAGAGACTATG | -0.797 |
| TCAGACTGAGGATGGGCCAAGGTTCAGAGA | 1.14 |
| AACTGAGTATTTAGCTTCCTCCCTTGGAAT | -0.853 |
| CTATGGACCTGCAAACAGCACTCTCTGATT | -1.03 |
| TCGGCGCTCCGCTTACTCGGCCTGGACCCC | 3.29 |
| AGAGGCCTTATCTGGCCGCCTAATCCCCTG | 1.27 |
| TGCCCTCACAGGTTCCAGCATGGACTTCAC | 2.31 |
| TTGACCCTGCGATAAGTAGATACCAAATAG | 0.44 |
| AGGCCGTTCTAGCCCTTTTTCCGGCTGAAT | -1.16 |
| TCTCCTGGAATGCAAGACCTCAGCCCTCAG | -1.15 |
| CGCCGGAACTGGTCCGGCCCGACTCACGAC | -1.12 |
| GACAGCCAGCTGGTAAATAAAGGAACTTAC | -1.2 |
| GCCTCGGGCCTGCGAGGTTACAGGGTTCAA | 2.18 |

| Sequence | binding signal (log2 normalized intensity) |
| --- | --- |
| GATCCTCACAGTGCCTCTGCAAGTTGGCCT | 1.4 |
| CTGAGATTCAGAATAGTTAAGTAACGTGTC | 1.17 |
| CACGCCTCAAATGAGCTTTTGATGAGCCTA | -1.16 |
| AGATTAGATTGCTCAGAGGCACAGTCTGCT | -1.18 |
| TCATTTGGCTTCCGTGCCTGCATGGGCTGT | -0.209 |
| AATGGGCAAAGGTCACAAGAGGTGCTGTGT | 4.69 |
| GGTCAGCTCATTCCCTAGGGCTCGGCATTC | -1.14 |
| GACTCTGAGACCTGTGATGGTCACTATCTG | 0.304 |
| CTTGCAGGTGTCAGGGGTCAATGTGCACAT | 5.04 |
| TTTCCCTCTGTGCCCGAGCTGTCTTATCTG | 0.962 |
| CCTCCTGAGATAGGTATGATAACCCCCGTC | 4.01 |
| CTGGTGTTTCCCTGTTTGCTTCTGCCCCCT | 5.16 |
| GGGTCAACAGACAAATGAAAGAGCTCAAAT | -0.882 |
| AGGCAGCCTCAGCCACACGCCCATCTCCAC | -1.18 |
| CTGGTTACTAAACACTTACACCTGGGTGCT | -0.949 |
| TTTAAACATTCCCACCTAAGACATAAATAT | 1.46 |
| TATCTTCCAGCCCTGTCTCTCAGGTGTAAC | 1.35 |
| TTGTCAGTGCCCTATACAGACCTTTGTATA | 2.96 |
| GGTACTGGAAACTGGGCAAGGTCCATTACG | 2.66 |
| TGGGTTTCGGTGTCATCTAGACCTGGACTT | 2.93 |
| GAGGGGGCAGGACAGCAGGAGTGGGAGAAA | -1.04 |
| AGCAGTGTGGACTTTTTCCTGAGGGCAGGA | 1.29 |
| GAACTCTGACCTTTGCCCCCAGCCTCTCAC | 8.72 |
| GGCCCTCAGCTGAGATAGCAGAGTCCAGTG | 2.39 |
| GGCTCCGATAAACCCAGGCAATGACTCCAA | -1.09 |

| Sequence | binding signal (log2 normalized intensity) |
| --- | --- |
| GGAAGGCAGTAAGAGAGAAAGAAACAGGGG | -1.14 |
| TCCAGGAGGTCGCTGGAAAGGCGGCAGGCT | -1.11 |
| CTTGCCATTGGAGGTCACCCTGTGTCAGCG | 0.743 |
| TGAATTGGTCATAATTCTCAAACTTTATGG | 1.37 |
| TAGGAAGCAACAGACTGCTGTGTTACTAGA | -1.19 |
| TGGCATCCCTGTGGTATTTGCTCTGTCATC | 1.91 |
| TGTGAGACCGGTTCCGCGGTCCGCAGCGCT | -1.05 |
| TCCCTGCCAAAGGTCAGAGTTGAACCCTTG | 5.15 |
| AAAACAGAATGGTCTGTATTTCAGAGACTA | -0.994 |
| TTACTGCAGAGAAGAAGCTTTGCCATTGTT | 0.786 |
| ATGAGGGCAGGATGCATGCACTTCATTGTG | 1.06 |
| TGCTTATCTTCTCTTTTACTGTACTTCTTT | 1.82 |
| ATTGGTTGCAGAAGGCAGCCAAACAGAGGC | -1.15 |
| CTGACGCCATCTGGCGTCCCCCACCTGGAA | 4.57 |
| GACCACCTGGTGGACCCAGCTGGTAAGTGC | 1.97 |
| GAATTTGGACTTTGCACTAAAAGCCATGAG | 5.86 |
| AGGATCTGTGTTATGCTTGCAGGTGTCAGG | 1.95 |
| GACCTGGACTCCCAAGATGGATTGGGTCCA | 2.23 |
| GTGGTTTGCTACACTGCCAAAGTTCAACCA | 2.2 |
| GGGGTGGGAGTGCAGAGAGAGAGGGAGACA | -1.09 |
| GTGATACCAGGGGTCATTTTATGGGAAAAC | 1.49 |
| ATCTAACAAGAAGTCTGAAGGCAGGGCTTT | -1.12 |
| CCCTCCGCAACCTTTACTCCTTGTGGTCAA | 2.49 |
